Experimental data: the supplement of paper PMC8728848
The other results are listed elsewhere or left out.

Tests used:
Experiment in all cases: glycan array binding signal (z-score within array); higher = stronger binding
Details in all cases: glycan notation: IUPAC condensed, linker removed
Fuc(a1-2)Gal = molecular target: Fuc(a1-2)Gal
How it was run: (§1)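 Glycan array data were curated from 3228 arrays in the Consortium for Functional Glycomics database and kept only where the protein sequence was available. Glycan names were converted to IUPAC-condensed notation, and columns mapping to the same glycan were averaged. The binding signal is a within-array Z-score, averaged across arrays of the same protein sequence at different concentrations or buffers and across linkers. Negative Z-scores can be read as non-binding.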

Fuc(a1-2)Gal(b1-3)GalNAc = molecular target: Fuc(a1-2)Gal(b1-3)GalNAc
How it was run: as §1

[1] = molecular target: Fuc(a1-2)Gal(b1-3)GalNAc(a1-3)[Fuc(a1-2)]Gal(b1-4)Glc
How it was run: as §1

[2] = molecular target: Fuc(a1-2)Gal(b1-3)GalNAc(a1-3)[Fuc(a1-2)]Gal(b1-4)GlcNAc
How it was run: as §1

[3] = molecular target: Fuc(a1-2)Gal(b1-3)GalNAc(b1-3)Gal
How it was run: as §1

[4] = molecular target: Fuc(a1-2)Gal(b1-3)GalNAc(b1-3)Gal(a1-4)Gal(b1-4)Glc
How it was run: as §1

[5] = molecular target: Fuc(a1-2)Gal(b1-3)GalNAc(b1-4)[Neu5Ac(a2-3)]Gal(b1-4)Glc
How it was run: as §1

Fuc(a1-2)Gal(b1-3)GlcNAc = molecular target: Fuc(a1-2)Gal(b1-3)GlcNAc
How it was run: as §1

[6] = molecular target: Fuc(a1-2)Gal(b1-3)GlcNAc(b1-2)Man(a1-3)[Fuc(a1-2)Gal(b1-3)GlcNAc(b1-2)Man(a1-6)]Man(b1-4)GlcNAc(b1-4)GlcNAc
How it was run: as §1

[7] = molecular target: Fuc(a1-2)Gal(b1-3)GlcNAc(b1-2)Man(a1-3)[Fuc(a1-2)Gal(b1-3)GlcNAc(b1-2)Man(a1-6)]Man(b1-4)GlcNAc(b1-4)[Fuc(a1-6)]GlcNAc
How it was run: as §1

[8] = molecular target: Fuc(a1-2)Gal(b1-3)GlcNAc(b1-3)Gal(b1-4)Glc
How it was run: as §1

[9] = molecular target: Fuc(a1-2)Gal(b1-3)GlcNAc(b1-3)GalNAc
How it was run: as §1

[10] = molecular target: Fuc(a1-2)Gal(b1-3)GlcNAc(b1-3)[Fuc(a1-2)Gal(b1-3)GlcNAc(b1-6)]GalNAc
How it was run: as §1

[11] = molecular target: Fuc(a1-2)Gal(b1-3)GlcNAc(b1-3)[Gal(b1-4)GlcNAc(b1-6)]Gal(b1-4)Glc
How it was run: as §1

[12] = molecular target: Fuc(a1-2)Gal(b1-3)GlcNAc(b1-3)[Neu5Ac(a2-6)Gal(b1-4)GlcNAc(b1-6)]Gal(b1-4)Glc
How it was run: as §1

[13] = molecular target: Fuc(a1-2)Gal(b1-3)GlcNAc6S
How it was run: as §1

[14] = molecular target: Fuc(a1-2)Gal(b1-3)[Fuc(a1-4)]GlcNAc
How it was run: as §1

[15] = molecular target: Fuc(a1-2)Gal(b1-3)[Fuc(a1-4)]GlcNAc(b1-2)Man(a1-3)[Fuc(a1-2)Gal(b1-3)[Fuc(a1-4)]GlcNAc(b1-2)Man(a1-3)]Man(b1-4)GlcNAc(b1-4)GlcNAc
How it was run: as §1

[16] = molecular target: Fuc(a1-2)Gal(b1-3)[Fuc(a1-4)]GlcNAc(b1-2)Man(a1-3)[Fuc(a1-2)Gal(b1-3)[Fuc(a1-4)]GlcNAc(b1-2)Man(a1-6)]Man(b1-4)GlcNAc(b1-4)[Fuc(a1-6)]GlcNAc(b1-4)[Fuc(a1-6)]GlcNAc
How it was run: as §1

[17] = molecular target: Fuc(a1-2)Gal(b1-3)[Fuc(a1-4)]GlcNAc(b1-3)[Fuc(a1-3)[Gal(b1-4)]GlcNAc(b1-6)]Gal(b1-4)Glc
How it was run: as §1

[18] = molecular target: Fuc(a1-2)Gal(b1-3)[Fuc(a1-4)]GlcNAc(b1-3)[Gal(b1-4)GlcNAc(b1-6)]Gal(b1-4)Glc
How it was run: as §1

[19] = molecular target: Fuc(a1-2)Gal(b1-4)Fuc(a1-3)]GlcNAc(b1-2)Man(a1-3)[Fuc(a1-2)Gal(b1-4)[Fuc(a1-3)]GlcNAc(b1-2)Man(a1-6)]Man(b1-4)GlcNAc(b1-4)GlcNAc
How it was run: as §1

Fuc(a1-2)Gal(b1-4)Glc = molecular target: Fuc(a1-2)Gal(b1-4)Glc
How it was run: as §1

Fuc(a1-2)Gal(b1-4)Glc6S = molecular target: Fuc(a1-2)Gal(b1-4)Glc6S
How it was run: as §1

Fuc(a1-2)Gal(b1-4)GlcNAc = molecular target: Fuc(a1-2)Gal(b1-4)GlcNAc
How it was run: as §1

[20] = molecular target: Fuc(a1-2)Gal(b1-4)GlcNAc(b1-2)Man
How it was run: as §1

[21] = molecular target: Fuc(a1-2)Gal(b1-4)GlcNAc(b1-2)Man(a1-3)[Fuc(a1-2)Gal(b1-4)GlcNAc(b1-2)Man(a1-6)]Man(b1-4)GlcNAc(b1-4)GlcNAc
How it was run: as §1

[22] = molecular target: Fuc(a1-2)Gal(b1-4)GlcNAc(b1-2)Man(a1-3)[Fuc(a1-2)Gal(b1-4)GlcNAc(b1-2)Man(a1-6)]Man(b1-4)GlcNAc(b1-4)[Fuc(a1-6)]GlcNAc
How it was run: as §1

[23] = molecular target: Fuc(a1-2)Gal(b1-4)GlcNAc(b1-2)[Fuc(a1-2)Gal(b1-4)GlcNAc(b1-4)]Man(a1-3)[Fuc(a1-2)Gal(b1-4)GlcNAc(b1-2)Man(a1-6)]Man(b1-4)GlcNAc(b1-4)GlcNAc
How it was run: as §1

[24] = molecular target: Fuc(a1-2)Gal(b1-4)GlcNAc(b1-3)Gal(b1-4)GlcNAc
How it was run: as §1

B1: Sebin2 (Coprinopsis cinerea), A8PE78 (protein)
chain: MTTPFYAYCHNVQDDNTWRLGLVFANRSTADEWWRAISEATSSIPITKSITRVTPQYYTHDIRVWNMYNFFVDGNIKSISDKFRGRLFITLEYDRSGRGVSVFPPLHIVDHVSGNWYYIRSKTAPHLFWFYDETRNAIYASKEKRTRFKVSIRNPSPQTPKDAIMINSDDVVIHIKESLYVGVDSYLGHIIPTRAYRTFKFGELEGGAIAGIEVAENAEERCSSTFDGASLYFVGPDSSSPGEPWELV
glycan array binding signal (z-score) (Fuc(a1-2)Gal): -0.328
glycan array binding signal (z-score) (Fuc(a1-2)Gal(b1-3)GalNAc): -0.315
glycan array binding signal (z-score) [1]: 0.019
glycan array binding signal (z-score) [2]: -0.4
glycan array binding signal (z-score) [3]: -0.584
glycan array binding signal (z-score) [4]: 0.1
glycan array binding signal (z-score) [5]: -0.117
glycan array binding signal (z-score) (Fuc(a1-2)Gal(b1-3)GlcNAc): -0.146
glycan array binding signal (z-score) [6]: 0.911
glycan array binding signal (z-score) [7]: 0.377
glycan array binding signal (z-score) [8]: -0.04
glycan array binding signal (z-score) [9]: -0.146
glycan array binding signal (z-score) [10]: -0.358
glycan array binding signal (z-score) [11]: -0.116
glycan array binding signal (z-score) [12]: -0.54
glycan array binding signal (z-score) [13]: -0.236
glycan array binding signal (z-score) [14]: -0.281
glycan array binding signal (z-score) [15]: -0.281
glycan array binding signal (z-score) [16]: -0.181
glycan array binding signal (z-score) [17]: -0.567
glycan array binding signal (z-score) [18]: -0.309
glycan array binding signal (z-score) [19]: 0.707
glycan array binding signal (z-score) (Fuc(a1-2)Gal(b1-4)Glc): -0.092
glycan array binding signal (z-score) (Fuc(a1-2)Gal(b1-4)Glc6S): -0.139
glycan array binding signal (z-score) (Fuc(a1-2)Gal(b1-4)GlcNAc): -0.015
glycan array binding signal (z-score) [20]: -0.007
glycan array binding signal (z-score) [21]: 0.006
glycan array binding signal (z-score) [22]: 0.03
glycan array binding signal (z-score) [23]: 0.019
glycan array binding signal (z-score) [24]: -0.482
